Reference: PMC4416901, “The Mycobacterium tuberculosis ClpP1P2 Protease Interacts Asymmetrically with Its ATPase Partners ClpX and ClpC1” (PLoS ONE, 2015)

Columns and labels:
[1] = target: T1, mature ClpP2 produced by in vitro processing of proClpP2 in the ClpP1P2 double-ring (Mycobacterium tuberculosis H37Rv); experiment: SEC; details: both partners purified
T1 construct: Mtb ClpP2 after propeptide cleavage, processed after Ala12; also called mClpP2; wtClpP2; not shown: His4, C-terminal, kept

[2] = target: the molecule itself; experiment: SEC
[3] = target: the molecule itself; experiment: negative stain electron microscopy; 1.4 μM proClpP1 protomer on a carbon-coated grid, 2% uranyl acetate

B1: mature ClpP1 produced by in vitro processing of proClpP1 in the ClpP1P2 double-ring (enzyme)
chain: not shown
notes: Mtb ClpP1 after propeptide cleavage; The cleavage site is called predominant, so other N-termini may be present; also called mClpP1; wtClpP1; not shown: His4, C-terminal, kept
binding result [1]: binds | binding result [2]: binds

B2: proClpP1 (Mycobacterium tuberculosis ClpP1 containing the N-terminal propeptide) (enzyme)
chain: not shown
notes: Mtb ClpP1, full length with its N-terminal propeptide; also called full-length ClpP1; Mtb ClpP1
binding result [3]: binds
